# Reference: paper PMC4336329 (PLoS ONE, 2015)
# Screen size: about 310,000 compounds; about 14,000 (4.5%) showed an effect of 50% or more. The effect is printed as a negative number. Some of the results follow.
# Target: human ether-à-go-go-related gene (hERG) potassium channel (human, UniProt Q12809)
# Experiment: primary screen, population patch clamp on CHO cells stably expressing hERG
# 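Also: peak tail current of the secondary pulse compared with the same well before compound.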
# Sequence of human ether-à-go-go-related gene (hERG) potassium channel (Q12809 whole entry, looked up): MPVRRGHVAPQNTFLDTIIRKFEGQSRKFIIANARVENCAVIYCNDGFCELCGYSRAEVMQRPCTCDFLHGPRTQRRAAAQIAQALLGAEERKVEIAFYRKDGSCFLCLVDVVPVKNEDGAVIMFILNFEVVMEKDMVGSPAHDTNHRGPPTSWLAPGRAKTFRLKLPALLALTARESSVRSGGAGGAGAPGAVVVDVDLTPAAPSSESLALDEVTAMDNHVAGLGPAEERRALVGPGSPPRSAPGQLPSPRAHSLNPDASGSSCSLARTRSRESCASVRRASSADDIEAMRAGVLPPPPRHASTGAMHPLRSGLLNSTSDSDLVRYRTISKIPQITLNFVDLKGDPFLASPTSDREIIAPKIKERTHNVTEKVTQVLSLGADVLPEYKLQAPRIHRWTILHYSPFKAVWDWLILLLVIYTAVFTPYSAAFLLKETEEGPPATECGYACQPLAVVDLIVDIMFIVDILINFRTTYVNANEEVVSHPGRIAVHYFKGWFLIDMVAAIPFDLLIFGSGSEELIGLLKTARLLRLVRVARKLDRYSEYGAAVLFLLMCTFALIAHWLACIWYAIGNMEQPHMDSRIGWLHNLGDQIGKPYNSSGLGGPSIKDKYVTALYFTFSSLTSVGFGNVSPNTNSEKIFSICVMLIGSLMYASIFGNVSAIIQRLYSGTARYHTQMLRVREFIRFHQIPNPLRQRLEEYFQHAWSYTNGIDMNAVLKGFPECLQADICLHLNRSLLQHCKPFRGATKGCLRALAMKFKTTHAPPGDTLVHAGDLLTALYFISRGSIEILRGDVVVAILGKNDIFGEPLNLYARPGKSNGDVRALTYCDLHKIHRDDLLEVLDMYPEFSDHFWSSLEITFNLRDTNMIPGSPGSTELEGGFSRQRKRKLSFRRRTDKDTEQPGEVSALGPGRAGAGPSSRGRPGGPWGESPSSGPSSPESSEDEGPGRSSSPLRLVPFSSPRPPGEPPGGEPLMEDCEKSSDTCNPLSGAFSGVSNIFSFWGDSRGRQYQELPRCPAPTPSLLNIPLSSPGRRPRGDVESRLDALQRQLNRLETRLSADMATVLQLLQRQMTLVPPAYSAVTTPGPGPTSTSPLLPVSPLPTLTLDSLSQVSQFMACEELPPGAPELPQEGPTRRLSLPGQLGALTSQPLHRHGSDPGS
row,SMILES,"hERG current change (%, negative = inhibition) at 10uM"
1,CC(=C/C(=O)O)/C=C/c1ccc(Cl)o1,8.64%
2,Cc1cc(C(=O)N/N=C/c2ccccc2Br)no1,-2.86%
3,O=C1NCCN(Cc2cccc(Oc3ccccc3)c2)C1CC(=O)N1CCCO1 (stereo not drawn),-7.51%
4,C=CCNC(=O)c1cc(-c2cccnc2)nc2ccccc12,-34.7%
5,CCOC(=O)CSc1snnc1C,26.2%
6,O=C(COC(=O)c1ccccc1C(=O)N1CCN(c2ccc(F)cc2)CC1)NCc1ccccc1,-73.6%
7,CCCCS(=O)CC(COc1ccc(Cl)cc1)OC(=O)c1ccccc1 (stereo not drawn),-56.3%
8,CC(=O)c1ccc(NC(=O)Cc2ccsc2)cc1,5.98%
9,CCOC(=O)c1cnn(-c2ccccc2)c1NC(=O)c1ccccc1C,-7.29%
10,Cc1cccc(OCC(=O)N2CCC(N3CCOCC3)CC2)c1,0.537%
11,CCN(CC)CCSc1nnc2c3cc(C)ccc3n(Cc3ccccc3)c2n1,-79.1%
12,Cc1cccc(NC(=O)Cn2cnc3ccc(S(=O)(=O)N4CCC(C)CC4)cc3c2=O)n1,-31.5%
13,COc1ccc(OC)c(NC(=O)C2CC(=O)N(c3ccccc3)C2)c1 (stereo not drawn),5.86%
14,COc1ccc(CCNC(=O)Cn2c(=O)n(-c3ccc(F)cc3F)c(=O)c3sccc32)cc1OC,-0.593%
15,O=C(Cc1cccc(NC(=O)C2CCCN(C(=O)C3CCC3)C2)c1)Nc1cccc(C(=O)N2CCCC2)c1 (stereo not drawn),7.74%
16,CCOC(=O)Nc1cccc(OCC(=O)Nc2ccccc2OCC)c1,-11.4%
17,COc1cc2c(cc1OC)C(COc1cccc(C(F)(F)F)c1)NCC2 (stereo not drawn),-31%
18,CCOc1ccc(CCNC(=O)c2ccc(CS(=O)Cc3ccc(Cl)cc3)o2)cc1OCC (stereo not drawn),-24.1%
19,C/C(=N/Oc1nc(C)cc(C)n1)c1ccc(F)cc1,-13.6%
20,COc1cccc(C(=O)NCc2n[nH]c(=S)n2-c2cccc(C)c2)c1,22.6%
21,CSc1ccc(Cl)c(C(=O)NCCOc2ccccc2)c1,-3.32%

row,SMILES,"hERG current change (%, negative = inhibition) at 10uM"
1,CN(C)c1nc2c(c(N)nn2-c2ccc(Cl)cc2)c(=O)o1,-4.18%
2,COc1ccc2[nH]c(=O)c(CN(C(=O)C3CCCO3)c3ccc(C)c(C)c3)cc2c1 (stereo not drawn),-8.86%
3,Cc1cc(C(=O)N(CCC#N)Cc2cccs2)no1,14.1%
4,CCCCc1c(C)c2ccc(OC)c(/C(C)=N\O)c2oc1=O,-6.55%
5,CCOc1ccc(C2C([N+](=O)[O-])=C(C)N(C)C(=O)N2C)cc1OC (stereo not drawn),-5.41%
6,COc1ccc2c(c1OC)C(=O)OC2N1C(=O)CC[C@H]1C(=O)Nc1ccc2c(c1)OCO2 (stereo partly drawn),2.27%
7,O=C(Nc1ccc(Cl)cc1)c1nc[nH]c1C(=O)NCc1ccccc1,16.5%
8,COc1ccc(NC(=O)CC2C(=O)N(C)C(=S)N2Cc2ccco2)cc1 (stereo not drawn),-7.55%
9,COC(=O)C1=C(C)NC(=O)C1(NS(=O)(=O)c1ccc(NC(C)=O)cc1)C(F)(F)F (stereo not drawn),6.65%
10,CCOC(=O)N1CCC(NC(=O)CN(c2ccc(C(C)C)cc2)S(=O)(=O)c2c(C)nn(C)c2C)CC1,-10.3%
11,COc1ccc(/C=N/Nc2ncc(-c3ccccc3)cn2)c(OC)c1,11.4%
12,CCOc1ccc(/C(C)=N/NC(=O)c2nnn(-c3nonc3N)c2-c2cccs2)cc1,20%
13,COc1ccc(CNC(=O)C2CCN(S(=O)(=O)c3ccc4c(c3)CC(C)N4C(=O)C3CC3)CC2)cc1 (stereo not drawn),-4.01%
14,Cc1ccc(-c2cc(=O)c3ccc(Cl)cc3[nH]2)cc1,8.8%
15,COc1ccc(NC(=O)/C(=C/c2ccc(OC(C)=O)c(OC)c2)NC(C)=O)cc1,1.88%
16,Cc1cccc([C@@H]2[C@@H]3C(=O)N(Cc4ccccc4)C(=O)[C@@H]3[C@]3(Cc4ccc(Cl)cc4)C(=O)N(c4cccc(Cl)c4)C(=O)N23)c1,5.6%
17,Cc1noc(C)c1COc1ccccc1C(=O)N1CCN(S(=O)(=O)c2ccccc2C(F)(F)F)CC1,-21.2%
18,CCOc1nc(NC2CCCCC2)nc(NC(C)(C)C)n1,-25.4%
19,Cc1oc2c(CN3CCCCC3)c(O)ccc2c(=O)c1-c1ccc(Cl)cc1,-24%
20,NCC(=O)c1cccc2ccc[n+]([O-])c12,26.6%
21,COc1ccc(-c2csc(Cc3nnc(N4CCOCC4)n3-c3ccccc3)n2)cc1OC,-1.84%
